Data reported in PMC10400884.
These are yes or no findings as the source states them, for the method shown. In cells and extracts the contact can be indirect. Some binding calls cover weakened binding; strength is not graded here.

Chains of the proteins cited; added tags and fusions are not shown.
UniProt O14744: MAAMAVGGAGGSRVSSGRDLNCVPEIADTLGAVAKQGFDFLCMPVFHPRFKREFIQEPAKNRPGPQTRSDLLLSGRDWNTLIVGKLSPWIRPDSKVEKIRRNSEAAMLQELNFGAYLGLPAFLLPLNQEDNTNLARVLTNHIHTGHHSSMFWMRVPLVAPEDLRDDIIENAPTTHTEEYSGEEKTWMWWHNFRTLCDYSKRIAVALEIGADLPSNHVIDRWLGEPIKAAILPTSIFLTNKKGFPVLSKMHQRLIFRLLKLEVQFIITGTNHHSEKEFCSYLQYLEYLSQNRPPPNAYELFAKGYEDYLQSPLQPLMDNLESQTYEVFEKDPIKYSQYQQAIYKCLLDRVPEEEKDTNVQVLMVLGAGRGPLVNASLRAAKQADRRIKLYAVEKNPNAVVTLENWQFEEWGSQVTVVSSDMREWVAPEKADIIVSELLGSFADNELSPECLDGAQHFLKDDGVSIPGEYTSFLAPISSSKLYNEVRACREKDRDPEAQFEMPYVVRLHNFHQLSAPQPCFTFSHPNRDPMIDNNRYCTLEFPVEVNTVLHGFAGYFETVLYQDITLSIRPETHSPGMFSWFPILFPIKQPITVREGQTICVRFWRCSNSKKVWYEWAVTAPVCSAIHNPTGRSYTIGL
UniProt Q13185: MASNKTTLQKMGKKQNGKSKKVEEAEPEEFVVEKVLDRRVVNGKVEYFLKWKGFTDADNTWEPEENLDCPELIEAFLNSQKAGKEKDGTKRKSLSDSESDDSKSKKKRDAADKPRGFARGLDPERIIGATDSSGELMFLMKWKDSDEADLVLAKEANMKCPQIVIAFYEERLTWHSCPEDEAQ
UniProt P04150: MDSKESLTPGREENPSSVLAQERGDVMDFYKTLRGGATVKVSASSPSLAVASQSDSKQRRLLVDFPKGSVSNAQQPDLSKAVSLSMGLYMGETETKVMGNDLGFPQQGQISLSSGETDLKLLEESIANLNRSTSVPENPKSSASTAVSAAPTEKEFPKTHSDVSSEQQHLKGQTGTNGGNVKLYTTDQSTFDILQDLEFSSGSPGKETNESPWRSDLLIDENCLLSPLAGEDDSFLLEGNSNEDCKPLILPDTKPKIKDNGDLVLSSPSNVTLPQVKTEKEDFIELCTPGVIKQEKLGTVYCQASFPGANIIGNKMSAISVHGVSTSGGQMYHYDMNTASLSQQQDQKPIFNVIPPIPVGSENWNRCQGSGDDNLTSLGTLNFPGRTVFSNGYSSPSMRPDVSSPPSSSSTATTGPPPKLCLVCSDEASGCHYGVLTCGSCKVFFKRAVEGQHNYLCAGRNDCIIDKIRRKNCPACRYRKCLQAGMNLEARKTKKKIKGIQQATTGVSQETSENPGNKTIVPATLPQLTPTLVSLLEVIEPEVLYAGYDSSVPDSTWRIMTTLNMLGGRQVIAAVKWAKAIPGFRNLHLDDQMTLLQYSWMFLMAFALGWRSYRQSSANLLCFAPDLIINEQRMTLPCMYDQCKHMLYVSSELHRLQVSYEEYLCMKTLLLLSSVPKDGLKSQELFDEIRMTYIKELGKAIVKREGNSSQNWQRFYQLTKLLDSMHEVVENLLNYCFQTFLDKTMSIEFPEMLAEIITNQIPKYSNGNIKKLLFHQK

How the values were obtained:
GST-PRMT5 fusion protein = GST-PRMT5 fusion protein (UniProt O14744); experiment: pull-down; GST fusion proteins incubated with in vitro-translated proteins in 200 μl binding buffer (Tris 20 mM pH 7.4, NaCl 0.1 M, EDTA 1 mM, glycerol 10%, Igepal 0.25%, 1 mM DTT, 1% milk) for 2 h at RT; Western blot; 100 nM Dex where indicated; only the target purified
GST-HP1γ fusion protein = GST-HP1γ fusion protein (UniProt Q13185); experiment: as above
[1] = target: V5-PRMT5 overexpressed in Cos-7 cells (psg5-V5-PRMT5) (UniProt O14744); experiment: co-IP; Cos-7 cells transfected with plasmids encoding PRMT5, GR and HP1γ; RIPA lysates immunoprecipitated with HP1γ, PRMT5 or GR antibody, protein A agarose; immunoblot
[2] = target: HA-HP1γ overexpressed in Cos-7 cells (pcdna3.1-HA-HP1γ) (UniProt Q13185); experiment: as above
[3] = target: GR overexpressed in Cos-7 cells (pcdna3.1-GR) (UniProt P04150); experiment: as above
[4] = target: HP1γ, endogenous in Cos-7 cells (African green monkey (endogenous in Cos-7)); experiment: co-IP; semi-endogenous CoIP: Cos-7 cells transfected with plasmids encoding PRMT5 and GR; lysates immunoprecipitated with HP1γ antibody; immunoblot
[5] = target: glucocorticoid receptor (GR), endogenous (human (endogenous in MDA-MB-231 and other TNBC cell lines, breast tumours)) (UniProt P04150); experiment: proximity ligation; PLA with pairs of primary antibodies on methanol-fixed TNBC cells (endogenous proteins); 100 nM Dex or ethanol for 2 h; also with siRNAs (GR, HP1γ, PRMT5, G9a, GLP), prednisolone, hydrocortisone, RU486 or GSK595
[6] = target: glucocorticoid receptor (GR), endogenous (human (endogenous in MDA-MB-231 and other TNBC cell lines, breast tumours)) (UniProt P04150); experiment: proximity ligation; PLA for GR/PRMT5 on formalin-fixed human breast tumours sampled at diagnosis
[7] = target: glucocorticoid receptor (GR), endogenous (human (endogenous in MDA-MB-231 and other TNBC cell lines, breast tumours)) (UniProt P04150); experiment: proximity ligation; PLA for GR/PRMT5 on breast cancer patient-derived xenografts (primary tumours and residual tumours after chemotherapy with GCs)
[8] = target: arginine methyltransferase PRMT5, endogenous (human (endogenous in MDA-MB-231, breast tumours)) (UniProt O14744); experiment: proximity ligation; PLA with pairs of primary antibodies on methanol-fixed TNBC cells (endogenous proteins); 100 nM Dex or ethanol for 2 h; also with siRNAs (GR, HP1γ, PRMT5, G9a, GLP), prednisolone, hydrocortisone, RU486 or GSK595
[9] = target: arginine methyltransferase PRMT5, endogenous (human (endogenous in MDA-MB-231, breast tumours)) (UniProt O14744); experiment: co-IP; endogenous proteins: MDA-MB-231 cells with or without 100 nM Dex for 8 h; lysates immunoprecipitated with PRMT5 antibody; immunoblot

With “in vitro-translated GR (pcdna3.1-GR) (from UniProt P04150 1-777) (receptor)” the binding (GST-PRMT5 fusion protein) was “binds” and the binding (GST-HP1γ fusion protein) was “no binding”.

“HA-HP1γ overexpressed in Cos-7 cells (pcdna3.1-HA-HP1γ) (from UniProt Q13185 1-183)” was tested, and the binding [1] was “binds”.

In the case of “V5-PRMT5 overexpressed in Cos-7 cells (psg5-V5-PRMT5) (from UniProt O14744 1-637) (enzyme)”, the binding [2] is reported as “binds”, the binding [3] is reported as “binds” and the binding [4] is reported as “binds”.

With “arginine methyltransferase PRMT5, endogenous (from UniProt O14744 1-637) (enzyme)” the binding [5] was “binds”, the binding [6] was “binds weakly” and the binding [7] was “binds”.

“HP1γ (CBX3), endogenous (from UniProt Q13185 1-183)” was tested, and the binding [8] was “binds” and the binding [9] was “binds”.

For “glucocorticoid receptor (GR), endogenous (from UniProt P04150 1-777)”, the binding [9] was “binds”.

With “in vitro-translated PRMT5 (psg5-V5-PRMT5) (from UniProt O14744 1-637) (enzyme)” the binding (GST-HP1γ fusion protein) was “binds”.

“GR overexpressed in Cos-7 cells (pcdna3.1-GR) (from UniProt P04150 1-777) (receptor)” was tested, and the binding [1] was “binds”.
